Data from the RNAGym collection of RNA variant scans (doi:10.7554/elife.90254).
Read counts are not given, so values of variants with three or more changes are uncertain.

B1: OR4K15 (parent)
chain: GUUAACGGUCAUAGGCCAUGGAAACUAGGAGCACCAUUUCGCUGCCAGUGAAGAAAUGAACAAAGAAAAUCUGGGCCAGGCAGGCAUCAAAAGAAAUAGUCUUGCGCUCAACCAGAAAGUCUGUAAUCAUUUUAAGGGUA

Variants of: B1
Experiment: self-cleavage, relative activity (ratio to wild type); higher = more cleavage; in vitro, sequencing; the parent is a self-cleaving ribozyme

| Variant | self-cleavage |
| --- | --- |
| U38C A96C U97A | 1.46 |
| C40U U43C U108C U130G | 0 |
| C40U A67G G74C | 0.18 |
| U39C A69G A114G | 0.22 |
| U38C A47U U49A A56G U72C | 0.1 |
| C40U A54G A67G | 1.1 |
| U39C A51G A86G A89G | 0.74 |
| U38C A56G A110G | 0.25 |
| U39C A51U U100C U120C | 2.93 |
| U38A U43A A60G A96G | 0.92 |
| U38C A60G A91U | 1.84 |
| U38C A47G A117G | 1.58 |
| U39C A51G A52G | 0.76 |
| U39C A54G A78G A82U G137A | 0.22 |
| U38C A62U A68G | 0.95 |
| U39C A56G A86G A114U U120C | 0 |
| U39C A68G A78U | 0.37 |
| U39C U49C A54U | 0.4 |
| U39A A66G U130C | 1.12 |
| U38C A62U A126G | 1.17 |
| U39C U49C A78U A114G U132C | 0.02 |

| Variant | self-cleavage |
| --- | --- |
| U39A U87C U102C A135U | 1.85 |
| U39C A62U A67G A116G | 0.18 |
| C40U A54G G79A U108C A110G | 0.01 |
| U38C A114U A135G | 0.03 |
| U38C U43C A78G | 0.05 |
| U39A A92U A118G | 2.13 |
| U39A A82U A129C | 0.06 |
| U39A G41A A62G A140G | 1.65 |
| U38C U49G A55G A82G A110G | 0.1 |
| U39C A51U A94U | 1.5 |
| U38G A92G U130C | 0.88 |
| U38A U43A A89G A94G U131C | 1.57 |
| U38A G119A U130C | 0.55 |
| U38C U39C A94G A95G A110U U139C | 1.4 |
| U39C A60G A118U | 0.52 |
| U38C A59G A64G | 0.42 |
| U38A A54G A66G A96G A114C A117G | 0.02 |
| U39A A78G A116G | 0.14 |
| U39C A68U A118G | 1.21 |
| U39C U57C A60G | 0.97 |
| G41A A59G U108C | 0 |

| Variant | self-cleavage |
| --- | --- |
| G41A A69G A91C A118G | 0.88 |
| U39A U43C A59G A117G | 0.67 |
| U38C A51C A78U A114G | 0.05 |
| U39C A51G U72C U103C | 0.26 |
| U39C A89U A118U | 0.74 |
| U38C A47U A69G | 1.36 |
| U39C A51G A64G | 0.99 |
| U38A A69C U108A U131C | 0 |
| U38C U100G A116U | 0.84 |
| C40U A59G A117G U127C | 2.15 |
| U39C A67G U120A U124C U132C | 1.04 |
| U38A G79A A91G U133A | 0.07 |
| U39A A92G A116G | 0.95 |
| G41A A62G A64G A135G | 0.58 |
| U39G A68G U131C | 1.13 |
| U39C A67G G137A | 2.21 |
| U38C A60G A90G U130C | 0.22 |
| U39C U43C A92G | 1.67 |
| U39C A67U A116G | 1.68 |
| U38C A67G A89G A92G U100C | 1.99 |
| U38G A110G A117G | 0.2 |

| Variant | self-cleavage |
| --- | --- |
| U38C U43C A60G U70A A118U | 0.35 |
| U39C A59G A60G A62G | 0.35 |
| U39C A59G A68G C101U | 0.3 |
| U39G A78U U127C | 0.16 |
| U39C A67G A111G A140G | 0.02 |
| U38C A94U A110U | 1.54 |
| U39C U70A A94G A118G | 1.24 |
| U38C A66U U72A | 0.04 |
| U38C A55U A68G A126G | 0.7 |
| U39C A63G A118G | 1.47 |
| U39G A47G A117U | 0.59 |
| U38C A94G U132C | 1.88 |
| U39C A60G A86G | 0.65 |
| U39C A91G A125G | 0.11 |
| U39C A60G U72A A90G | 0.17 |
| U38C A129G G137U | 1.09 |
| U39C A51U A63G G74A A82G U132C | 0.31 |
| U38C A51G U57C A90G A134U | 1.74 |
| U39C A54G A60U A98G A111C | 0.02 |
| U38C C107U U139G A140U | 0.02 |
